Out of some 310,000 compounds screened, about 2,200 (0.71%) showed an effect of 50% or more. Effects have a minus sign here. Some of the results follow.
Biological target: human ether-à-go-go-related gene (hERG) potassium channel (human, UniProt Q12809)
Assay: primary screen, population patch clamp on CHO cells stably expressing hERG

Sequence of human ether-à-go-go-related gene (hERG) potassium channel (Q12809 whole entry, looked up): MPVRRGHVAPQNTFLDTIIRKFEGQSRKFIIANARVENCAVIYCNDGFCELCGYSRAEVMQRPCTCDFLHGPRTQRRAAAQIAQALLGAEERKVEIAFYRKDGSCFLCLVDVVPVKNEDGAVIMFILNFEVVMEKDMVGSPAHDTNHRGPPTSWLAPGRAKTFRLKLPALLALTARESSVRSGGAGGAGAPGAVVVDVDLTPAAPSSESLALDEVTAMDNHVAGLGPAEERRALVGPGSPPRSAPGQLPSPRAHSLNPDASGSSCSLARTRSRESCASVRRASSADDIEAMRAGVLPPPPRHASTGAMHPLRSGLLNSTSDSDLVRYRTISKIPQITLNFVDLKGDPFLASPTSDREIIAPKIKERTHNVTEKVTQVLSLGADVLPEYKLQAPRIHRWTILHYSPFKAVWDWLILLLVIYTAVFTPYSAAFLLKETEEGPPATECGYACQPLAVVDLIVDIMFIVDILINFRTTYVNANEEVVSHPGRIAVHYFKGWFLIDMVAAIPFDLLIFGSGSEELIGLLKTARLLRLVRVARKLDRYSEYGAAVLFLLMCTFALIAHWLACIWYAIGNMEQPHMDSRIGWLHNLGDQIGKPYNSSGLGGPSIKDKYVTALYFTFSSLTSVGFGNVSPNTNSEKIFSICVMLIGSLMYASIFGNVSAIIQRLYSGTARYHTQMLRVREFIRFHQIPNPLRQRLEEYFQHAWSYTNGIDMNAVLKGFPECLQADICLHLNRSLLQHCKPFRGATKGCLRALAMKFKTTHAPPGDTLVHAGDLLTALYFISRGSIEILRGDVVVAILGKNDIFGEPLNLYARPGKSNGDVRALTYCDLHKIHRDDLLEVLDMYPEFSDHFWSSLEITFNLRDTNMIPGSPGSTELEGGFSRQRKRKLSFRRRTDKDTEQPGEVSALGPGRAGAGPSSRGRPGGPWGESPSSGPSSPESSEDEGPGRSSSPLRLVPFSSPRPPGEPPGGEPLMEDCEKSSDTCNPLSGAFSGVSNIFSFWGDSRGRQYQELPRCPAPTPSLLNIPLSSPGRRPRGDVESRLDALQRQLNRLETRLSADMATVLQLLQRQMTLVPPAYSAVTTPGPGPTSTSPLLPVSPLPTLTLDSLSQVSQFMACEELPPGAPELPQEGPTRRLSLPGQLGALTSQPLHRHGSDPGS

SMILES	hERG current change (%, negative = inhibition) at 1uM [%]
O=C(CCCOc1ccccc1)Nc1ccc(S(=O)(=O)Nc2ccccn2)cc1	12.3
Cc1[nH]c2ccccc2c1C(O)CN1CCC2(CC1)OCCO2 (stereo not drawn)	1.75
CC(C)n1c(O)c(N=Nc2ccc(Cl)c(C(=O)O)c2)c2ccccc21	-0.433
CCc1noc(C)c1C(=O)NCCc1ccc(F)cc1	8.6
Cc1nc(NCCCN2CCOCC2)c2oc3ccccc3c2n1.Cl	7.18
Cc1cc(C(F)(F)F)n(-c2nc(C(=O)O)cs2)n1	17.6
CCOC(=O)C1=C(c2ccccc2)NC(=S)NC1c1cc([N+](=O)[O-])ccc1OC (stereo not drawn)	7.47
Cc1ccc(C(=O)Nc2scc(-c3ccccc3)c2C(=O)O)o1	14.5
CCNC(=O)C1CC(=O)OC12CCCCC2 (stereo not drawn)	6.14
CNC(=S)N1CCn2cccc2C1c1ccc(F)cc1 (stereo not drawn)	7.45
COc1ccc(Br)cc1CN(C)C(C)C(=O)Nc1cccc(C(C)=O)c1 (stereo not drawn)	7.11
CCC(C)c1ccccc1O (stereo not drawn)	12.2
COc1ccc(O)c(C(=O)c2cnn(S(=O)(=O)c3ccc(C)cc3)c2)c1	5.56
COc1ccc(CNC(=O)C2CCC(CNS(=O)(=O)c3ccc(C)cc3)CC2)cc1 (stereo not drawn)	12.2
CCNc1cccc2c1C(=O)N(C)C2=O	30.6
O=C(N/N=C/c1cccc2ccccc12)c1ccccc1Cl	14
COC(=O)c1[nH]cnc1C(=O)c1ccccc1	12
COc1ccc(CC2(CO)CCN(Cc3ccc4nsnc4c3)CC2)cc1	-4.45
COC(=O)c1sccc1NC(=O)CSc1ccccc1NS(=O)(=O)c1ccc(Cl)cc1	-2.54
Cc1c(NC(=O)c2cccnc2C(=O)O)cccc1C(=O)O	3.86
CCOc1ccc(-c2c(=O)n(OCC)c3ccccc3[n+]2[O-])cc1	-2.34
O=S(=O)(c1ccc(NC(=S)N/N=C/c2ccc(N3CCOCC3)cc2)cc1)N1CCOCC1	17.5
Clc1ccc(SCCN2CCNCC2)cc1.O=C(O)C(=O)O	7.9
COc1ccccc1NC(=S)N1CCN(c2nc(-c3ccccc3)cs2)CC1	8.23

SMILES	hERG current change (%, negative = inhibition) at 1uM [%]
CS(=O)(=O)c1ccc(Cl)c(NC(=O)CCc2ccccc2)c1	3.51
Cc1ccc(-n2cccc2/C=C2/C(=N)N3C(=NC2=O)SN=C3S(C)(=O)=O)cc1	4.78
CCOC(=O)c1ccc(NC(=S)Nc2ccccn2)cc1	8.79
COCCCNCCCOc1ccc(Cl)cc1C(C)(C)C	-12.8
CCOc1cc(C(=O)OCc2ccc([N+](=O)[O-])cc2)ccc1OCC(=O)N1CCOCC1	3.84
C=CCc1cccc2cc(C(=O)NNC(=O)CC#N)c(=O)oc12	8.04
Br.NC12CC3CC(C1)CC(O)(C3)C2	12.5
Brc1ccc(-c2noc(CCc3ccccc3)n2)o1	5.88
CCOc1ccc(C(C)=O)cc1CSc1nnc(-c2cccs2)n1CC1CCCO1 (stereo not drawn)	-10.1
Cc1ccc(C2(C)NC(=O)N(CC(=O)Nc3cc(S(=O)(=O)N(C)C)ccc3C)C2=O)cc1 (stereo not drawn)	5.62
COc1ccc(-c2[nH]nc(-c3ccccc3)c2-c2nc3ccccc3[nH]2)cc1	15.6
Cc1ccc(C(=O)CCC(=O)NNC(=O)c2ccccc2O)cc1	8.71
COc1ccc(NC(=O)CC(NCCc2ccccc2)C(=O)O)c(OC)c1 (stereo not drawn)	5.85
CCOc1ccccc1N1CC(C(=O)N2CCN(Cc3ccc(C#N)cc3)CC2)CC1=O (stereo not drawn)	-43.4
CCOC(=O)c1cnc(-c2ccccc2)nc1Oc1ccc(OC)cc1	11.8
CSc1ccc(C#N)cc1NC(=O)c1ccccc1	11
CC(O)c1cccc(NC(=O)CCCc2ccccc2)c1 (stereo not drawn)	15
Cn1nnc(NCc2cc(Br)ccc2OCc2cccs2)n1	7.22
C[C@H]1CCC/C=C/[C@@H]2C[C@H](O)C[C@H]2[C@H](O)/C=C/C(=O)O1 [56463468]	15.9
CC(C)SC1=NC(C)(C)C=C(/C=C/c2c(Cl)cccc2Cl)N1	7.09
CCOc1ccc(/C=N/n2nnnc2N)cc1O	5.81
O=C(COc1ccc(Cc2ccccc2)cc1)c1ccc(F)cc1	9.98
O=c1c2ccccc2nnn1CSc1nnc(-c2ccco2)o1	1.47
Nc1nc(-c2nonc2N)no1	6.05

SMILES	hERG current change (%, negative = inhibition) at 1uM [%]
COc1ccc(NC(=O)c2ccc(-c3ccc(C)c4ccccc34)o2)cc1	3.11
COCCN(C(=O)Cn1nnc2ccccc21)C(C(=O)NC1CCCC1)c1ccc(OC)cc1OC (stereo not drawn)	7.32
Cc1ccc(CNC(=O)c2ccc(C)c(S(=O)(=O)N3CCCCC3)c2)cc1	-3.75
CSc1sc(C(=O)NCC2CC2)c(-c2cccs2)c1C#N	13.5
CC(C)OC(=O)c1nnn(-c2nonc2N)c1CSc1ccccn1	2.14
CC(C)CC(NC(N)=O)C(=O)NCCc1ccc(Cl)cc1Cl (stereo not drawn)	-0.28
CCOc1ccccc1C(=O)NCC(=O)NCC(c1ccco1)N1CCCCC1 (stereo not drawn)	12.4
COC(=O)c1sccc1NC(=S)N1CCC(C(N)=O)CC1	10.7
COc1ccc(NC(=O)CCCNC(=O)Cn2cnc3sc(C)c(C)c3c2=O)cc1OC	9.95
CCc1nc(SCC(=O)N2CCCc3ccccc32)c2oc3ccccc3c2n1	-13.1
N/C(COc1cccc(Cl)c1)=N\O	9.2
CC(C)(C)CC(=O)NC(=S)NCc1ccco1	11.4
Cc1ccc(NC(CNS(=O)(=O)c2ccc(Cl)cc2)c2ccccc2)cc1 (stereo not drawn)	1.89
COCCOC(=O)/C=C1/NC(=O)CS1	-0.415
O=C(O)CC12CC3CC(C1)CC(n1ncc(NCc4ccco4)c(Cl)c1=O)(C3)C2	9.7
O=C(CNC(=O)c1ccccc1)OCc1cc(=O)n2cc(Br)ccc2n1	-20.5
CC(C)(Oc1ccc(Cl)cc1)C(=O)NCc1ccc(S(N)(=O)=O)cc1	8.83
CC1=CCC2C(=O)N(c3ccc(Br)cc3C)C(=O)C2C1 (stereo not drawn)	-7.23
Cc1ccc2oc(=O)c3cc(C(=O)NCCCN4CCCC(C)C4)sc3c2c1 (stereo not drawn)	10.8
Br.CCCc1cc(-c2nc(-c3ccc(C)cc3)cs2)ccn1	1.37
O=C(O)Cn1ncn(-c2ccc(OC(F)(F)F)cc2)c1=O	17.6
COc1cc(-c2nnc(SCC(=O)Nc3ccc4c(c3)OCCO4)o2)cc(OC)c1OC	5.51
COc1ccc2cc(C(=O)COC(=O)COc3ccc4c(C)cc(=O)oc4c3)ccc2c1	15.4
O=C(N/N=C/c1ccc(-c2ccc(Br)cc2)o1)c1ccc2c(c1)OCO2	1.12

SMILES	hERG current change (%, negative = inhibition) at 1uM [%]
COc1cc([N+](=O)[O-])cc(/C=C2/SC(=S)N(Cc3ccccc3)C2=O)c1O	16.1
COc1ccc(OC)c(C2C(C#N)=C(N)Oc3cc(N)ccc32)c1 (stereo not drawn)	9.59
C/C(=N\Nc1cccc(C(=O)O)c1)c1ccc(Cl)s1	18.2
C=COCCCNc1ncnc2sc(-c3ccccc3)cc12	15.7
COC(=O)c1ccccc1NC(=O)C(C)Oc1ccccc1 (stereo not drawn)	13
COc1ccc2[nH]cc(CCNC(=O)c3ccc([N+](=O)[O-])cc3)c2c1	3.4
Cc1ccc(Nc2ccccc2N)cc1	7.42
O=P(O)(O)Cc1c(Cl)cccc1Cl	7.74
COC(=O)c1c(NC(=O)Nc2ccc(Cl)cc2)sc(C)c1C	6
CC1CCCCC1NC(=O)CCCCn1c(=O)[nH]c2ccsc2c1=O (stereo not drawn)	20.2
O=C(c1cc(-c2ccccc2)nc2ccccc12)N1CCN(c2ccccn2)CC1	1.88
CN(O)/C=c1/ccc2c(n1)C(=O)C=CC=2	-4.54
COc1cccc(S(=O)(=O)Nc2ccc(C(=O)NCc3ccco3)cc2)c1	13.6
CCC(=O)N1CCN(C(=O)CC)C1c1ccccc1	6.92
CN(c1ccccc1)S(=O)(=O)c1ccc(C(=O)Nc2ncccc2O)cc1	8.81
CCOC(=O)c1cnn(-c2cccc(Cl)c2)c1N	-0.745
C1=C(c2ccccc2)CCN(c2ncnc3nc[nH]c23)C1	-4.38
Cc1ccccc1Cn1c(=O)c2c(nc3n2CCCN3Cc2ccccc2)n(C)c1=O	-4.58
CC(C)(C)C1CCC(=NNC(=O)c2cc3c(s2)CCCC3)CC1 (stereo not drawn)	9.98
Cc1cc2[nH]c(=O)c(=O)[nH]c2cc1S(=O)(=O)NC1CCCCC1C (stereo not drawn)	4.22
CN(C)CCNC(=O)C(=O)Nc1cc2c3c(c1)CCN3C(=O)CC2	25.1
